Out of some 220,000 compounds screened, about 16,000 (7.3%) were called active. Inconclusive means that the source gave no clear call. Such entries were picked first, then a sample of the others. The call rests on the fitted dose curve; in most records, active means well fitted inhibition curve with a large enough effect (not every such curve was filed as active); inconclusive means small, poorly fitted or top-dose-only effect, or another doubt; inactive means no such curve, though single readings can be large or run the other way. Potencies of inconclusive entries are left out as doubtful fits.
biological target: Aldehyde dehydrogenase 1A1 (Homo sapiens) (UniProt P00352); experiment: qHTS Assay for Inhibitors of Aldehyde Dehydrogenase 1 (ALDH1A1); conditions: Purified ALDH1A1, NADH fluorescence, propionaldehyde substrate; series mostly up to 75.3 µM;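 on activity, negative = inhibition: plate controls were no enzyme wells and a reference inhibitor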
Sequence of UniProt P00352 (P00352 whole entry, looked up): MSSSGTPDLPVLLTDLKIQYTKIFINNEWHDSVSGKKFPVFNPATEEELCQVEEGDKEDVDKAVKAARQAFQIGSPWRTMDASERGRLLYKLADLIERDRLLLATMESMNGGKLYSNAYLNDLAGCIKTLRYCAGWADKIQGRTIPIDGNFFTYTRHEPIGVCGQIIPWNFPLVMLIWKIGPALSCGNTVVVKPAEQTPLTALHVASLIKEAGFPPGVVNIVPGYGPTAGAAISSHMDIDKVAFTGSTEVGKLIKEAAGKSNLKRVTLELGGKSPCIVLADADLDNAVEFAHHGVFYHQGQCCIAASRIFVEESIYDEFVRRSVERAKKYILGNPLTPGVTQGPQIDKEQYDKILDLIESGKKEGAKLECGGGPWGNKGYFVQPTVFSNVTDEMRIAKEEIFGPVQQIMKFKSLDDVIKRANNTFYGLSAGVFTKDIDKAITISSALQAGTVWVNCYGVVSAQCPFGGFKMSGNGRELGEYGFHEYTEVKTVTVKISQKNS
Potency means the concentration at half of the fitted maximal effect; tags describe the fitted curve by direction and shape.

| SMILES | Potency | activity, negative = inhibition |
| --- | --- | --- |
| CC1(C)Cc2c(C#N)c(NCCCO)nc(-c3ccccc3)c2CO1 | inconclusive [inhibitor, partial curve] | – |
| CC(=O)c1c(C(C)=O)c(C)n(-c2nc(-c3cccs3)c(C)s2)c1C | inactive | – |
| CCCCn1c(=O)c(C(=O)c2ccccc2)nc2ccccc21 | active: 22.4 µM | – |
| CCCCCC(=O)Nc1nc(C)c(-c2csc(Nc3cc(OC)ccc3OC)n2)s1 | inconclusive [inhibitor, single point] | – |
| CC(/C=N/n1c(-c2cc(C)[nH]n2)n[nH]c1=S)=C\c1ccccc1 | inactive | – |
| CC1=Nn2c(nc(-c3ccccc3)c2-c2ccccc2)NC(=O)C1Br (configuration not stated) | inconclusive [inhibitor, partial curve] | – |
| O=C(c1ccco1)N(Cc1ccc([N+](=O)[O-])cc1)c1ccc(Br)cc1 | inconclusive [inhibitor, single point] | – |
| COc1ccc(NC(=S)N/N=C2\CC(C)(C)Oc3ccc(OC)cc32)cc1 | inconclusive [inhibitor, single point] | – |
| C/C(NC1CCCC1)=C(/C#N)C(N)=O | inactive | – |
| CCN(c1ccccc1)S(=O)(=O)c1ccc2[nH]c(=O)[nH]c2c1 | inactive | – |
| COCCn1c(=O)c(C)nc2cncnc21 | inconclusive [inhibitor, partial curve] | – |
| N[C@@H](Cc1c[nH]c2ccc([N+](=O)[O-])cc12)C(=O)O | – | inactive: 7.45% [at 13.5 µM] |
| COc1ccc(C(=O)/C(C#N)=N/Nc2ccc([N+](=O)[O-])cc2)cc1 | inconclusive [inhibitor, partial curve, poor fit] | – |
| CNc1nc(-c2ccccc2C)nc2ccccc12 | inactive | – |
| COc1ccccc1OCc1nc2ccccc2[nH]1 | inactive | – |
| CCOc1ccc(CC(=O)C2=C(N3CCOCC3)CC(C)(C)CC2=O)cc1OCC | active: 39.8 µM | – |
| O=C(O)c1cc(-c2cc3ccccc3o2)nn1-c1ccccc1 | inconclusive [inhibitor, single point] | – |
| Cc1cc(C)nc(NC2=NCC(=O)N2c2ccc3c(c2)OCCO3)n1 | inactive | – |
| Cc1cc([N+](=O)[O-])nn1CC(=O)NNC(=S)Nc1ccc(Cl)cc1 | inconclusive [inhibitor, single point] | – |
| COc1ccc(C(=O)NC(=S)N2CCCCC2)cc1 | active: 15.8 µM | – |
| CC(Nc1cc(N2CCCC2)ccc1[N+](=O)[O-])c1ccccc1 (configuration not stated) | inconclusive [inhibitor, single point] | – |
| Cc1cc2c(c(=O)n1Cc1cccnc1)C(c1ccccc1)C(C#N)=C(N)O2 (configuration not stated) | inactive | – |
| O=C(Nc1ccc(N2CCOCC2)c(Cl)c1)c1ccc2c(c1)OCCO2 | inconclusive [inhibitor, single point] | – |
| CCOC(=O)c1cc(CC)sc1N1C(=O)CC(Sc2ncccc2C(=O)O)C1=O (configuration not stated) | inconclusive [inhibitor, single point] | – |

| SMILES | Potency | activity, negative = inhibition |
| --- | --- | --- |
| COc1ccc(/C=N/Nc2nc(-c3cccc(S(=O)(=O)N4CCCC4)c3)cs2)cc1OC | inconclusive [inhibitor, single point] | – |
| CCN(CC)C(=O)C1CC(=O)OC1(C)C (configuration not stated) | inconclusive [inhibitor, single point] | – |
| Cc1c(NC(=O)CN2CCN(c3ccc(O)cc3)CC2)c(=O)n(-c2ccccc2)n1C | inconclusive [inhibitor, single point] | – |
| CCOC(=O)c1c(NC(=O)C2C3CCC(O3)C2C(=O)O)sc(C)c1-c1ccc(F)cc1 (configuration not stated) | inactive | – |
| Fc1cccc(-n2c(-c3ccco3)nc3nc4ccccc4nc32)c1 | inconclusive [inhibitor, full curve] | – |
| Cn1nnnc1SCCNCc1cc(Cl)ccc1OCc1ccccc1 | active: 12.6 µM | – |
| O=C1CN(C(=O)CSc2nnc(Nc3ccccc3)s2)c2ccccc2N1 | active: 28.2 µM | – |
| CN1c2ccccc2Oc2nnc(Cl)cc21 | inconclusive [inhibitor, single point] | – |
| CC1(c2ccccc2)NC(=O)N(CC(=O)NC(=O)NC2CCCC2)C1=O (configuration not stated) | active: 12.6 µM | – |
| COc1ccc(Nc2c3c(nc4ccccc24)CCCC3)cc1OC | inactive | – |
| Nc1ccccc1SC1CC(=O)N(Cc2ccccc2)C1=O (configuration not stated) | inconclusive [inhibitor, single point] | – |
| CCOC(=O)c1sc2nc(CC(=O)OC)nc(NCc3ccco3)c2c1C | inconclusive [inhibitor, partial curve] | – |
| O=C(CSc1nnc(-c2ccccn2)o1)Nc1ccccc1 | inactive | – |
| O=c1[nH]c2cc3c(cc2cc1C(c1nnnn1Cc1ccccc1)N1CCN2CCCC2C1)OCCO3 (configuration not stated) | inconclusive [inhibitor, partial curve] | – |
| COc1ccc(OC)c(C(=O)c2ccc(C(=O)N3CCN(Cc4csc(C)n4)CC3)cc2)c1 | inconclusive [inhibitor, single point] | – |
| CN1CCN(c2ncc3nc(-c4cccc(C#N)c4)c(=O)n(C[C@H]4CCCO4)c3n2)CC1 | inconclusive [inhibitor, partial curve] | – |
| CCOc1ccc(C(CC(=O)O)n2cnnn2)cc1OC (configuration not stated) | inconclusive [inhibitor, single point] | – |
| CC(=O)NC(c1ccccc1)c1cc([N+](=O)[O-])c2cccnc2c1O (configuration not stated) | inconclusive [inhibitor, partial curve] | – |
| Cc1ccc(C)c(NC(=S)Nc2cccc3cnccc23)c1 | active: 8.91 µM | – |
| CN(Cc1ccccc1)S(=O)(=O)c1ccc(Cl)c(C(=O)NCc2ccc3c(c2)OCO3)c1 | inconclusive [inhibitor, partial curve, poor fit] | – |
| CN=c1scc(C)n1/N=C/c1ccc(O)cc1 | inactive | – |
| CC1=C(C(=O)OC(C)C)C(c2cncc(-c3ccc(F)cc3)c2)C(C#N)=C(N)O1 (configuration not stated) | inconclusive [inhibitor, single point] | – |
| COc1ccc(S(=O)(=O)NCc2ccc(C(=O)O)cc2)cc1 | inactive | – |
